Out of some 350,000 compounds screened, about 31,000 (8.9%) were called active. The inconclusive results got no clear call from the source; some entries with a clear call stand among them for comparison. The call rests on the fitted dose curve; in most records, active means well fitted inhibition curve with a large enough effect; inconclusive means small, poorly fitted or top-dose-only effect; inactive means no such curve, though single readings can be large or run the other way. A potency beside an inconclusive call is a rough fit, not a confirmed value.
Each compound was assayed against Histone-lysine N-methyltransferase EHMT2 (Homo sapiens) (UniProt Q96KQ7) (assay: qHTS Assay for Inhibitors of Histone Lysine Methyltransferase G9a). Conditions: G9a H3K9 monomethylation, AlphaScreen, 2 h; activity, negative = inhibition: at 59 µM (top of the series) unless noted.
Sequence of UniProt Q96KQ7 (Q96KQ7 whole entry, looked up): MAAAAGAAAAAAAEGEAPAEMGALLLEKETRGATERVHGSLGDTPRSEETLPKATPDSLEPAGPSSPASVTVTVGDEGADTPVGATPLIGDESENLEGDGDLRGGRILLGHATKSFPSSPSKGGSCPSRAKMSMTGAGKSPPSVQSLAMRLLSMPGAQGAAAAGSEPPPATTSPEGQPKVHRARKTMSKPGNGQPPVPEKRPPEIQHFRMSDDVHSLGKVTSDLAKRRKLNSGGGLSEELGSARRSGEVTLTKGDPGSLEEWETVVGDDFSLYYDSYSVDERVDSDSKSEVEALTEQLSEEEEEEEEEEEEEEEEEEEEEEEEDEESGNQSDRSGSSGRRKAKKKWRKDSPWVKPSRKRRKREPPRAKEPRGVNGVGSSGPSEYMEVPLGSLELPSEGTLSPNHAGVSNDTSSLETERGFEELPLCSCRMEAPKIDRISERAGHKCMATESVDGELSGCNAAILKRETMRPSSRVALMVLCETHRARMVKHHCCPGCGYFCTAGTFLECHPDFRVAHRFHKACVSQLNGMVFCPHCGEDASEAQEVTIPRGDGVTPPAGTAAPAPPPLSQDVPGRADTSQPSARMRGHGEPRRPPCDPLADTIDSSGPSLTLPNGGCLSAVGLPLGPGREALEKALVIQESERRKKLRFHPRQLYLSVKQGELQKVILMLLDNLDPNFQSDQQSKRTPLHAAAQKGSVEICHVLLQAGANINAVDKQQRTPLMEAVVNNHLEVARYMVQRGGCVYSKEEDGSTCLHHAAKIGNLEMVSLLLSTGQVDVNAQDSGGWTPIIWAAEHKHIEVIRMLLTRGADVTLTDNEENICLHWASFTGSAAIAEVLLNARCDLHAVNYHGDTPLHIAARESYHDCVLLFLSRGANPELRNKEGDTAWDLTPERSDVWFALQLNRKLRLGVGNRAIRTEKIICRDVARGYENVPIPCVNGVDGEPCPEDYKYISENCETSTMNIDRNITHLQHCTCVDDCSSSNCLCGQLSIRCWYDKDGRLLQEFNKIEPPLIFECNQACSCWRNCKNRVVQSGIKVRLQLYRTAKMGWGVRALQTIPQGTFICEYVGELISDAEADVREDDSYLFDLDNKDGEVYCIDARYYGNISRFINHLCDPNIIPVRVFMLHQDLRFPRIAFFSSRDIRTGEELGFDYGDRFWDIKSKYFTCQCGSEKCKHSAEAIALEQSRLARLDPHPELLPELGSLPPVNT
In short: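 Step 1: enzyme (final 20 nM) with compound, 15 min RT. Step 2: substrate peptide 500 nM and SAM 20 uM, 2 h RT. Step 3: anti-H3K9me1 antibody and AlphaScreen beads, 10 min, then plate read.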
In the case of `Cc1cc(C)c(C(=O)OCCNC(=O)c2cccnc2)cc1C`, the Potency is reported as inconclusive: 22.4 µM [inhibitor, partial curve, poor fit].
`O=C(O)c1ccccc1C(=O)c1ccc(N2CCCC2)c([N+](=O)[O-])c1` was tested, and the Potency was inconclusive: 50.1 µM [inhibitor, partial curve, poor fit].
With `O=C1CCC(=O)N1c1nc2n(n1)C(c1ccccc1)C=C(c1ccc(Br)cc1)N2` (centres undefined) the Potency was active: 25.1 µM.
For `CCOC(=O)c1c(C)[nH]c(CCC(=O)Nc2cc(C)cc(C)c2)c1C`, the “activity, negative = inhibition” value was inactive: 1.07%.
In the case of `CCOC(=O)CC1C(=O)NCCN1c1nc2ccc(C)cn2c(=O)c1/C=C1\SC(=S)N(CC(C)C)C1=O` (centres undefined), the Potency is reported as inconclusive: 35.5 µM [inhibitor, full curve].
For `O=C(Cn1nc(C(F)(F)F)c2c1CCCC2)Nc1ccc(Cl)cc1`, the “activity, negative = inhibition” value was inactive: 2.55%.
`COc1cc(C(=O)NC(c2ccccc2)c2ccccc2)cc(OC)c1C` was tested, and the Potency was active: 50.1 µM.
In the case of `COc1cc(OC)cc(C(=O)Nc2ccc(S(=O)(=O)Nc3onc(C)c3C)cc2)c1`, the Potency is reported as inconclusive: 12.6 µM [inhibitor, partial curve, poor fit].
`COc1ccc(C(=O)N2CCC3(CCCN(c4ccncc4)C3)CC2)cc1` was tested, and the Potency was inconclusive: 0.891 µM [inhibitor, full curve, poor fit].
With `CN(C)CC1CCCCC1OC(=O)c1ccc(S(=O)(=O)N(C)c2ccccc2)cc1` (centres undefined) the Potency was inconclusive: 89.1 µM [inhibitor, single point].
With `COC(=O)c1c(C)c2c(C)cc3ccccn3c-2c1C(=O)OC` the activity, negative = inhibition was inconclusive: -70.6% [inhibitor].
In the case of `C[C@H]1CN=C(Nc2ccccc2)N1CC1CCC1`, the “activity, negative = inhibition” value is reported as inactive: 14.5% [at 102 µM].
`O=[N+]([O-])c1ccc(S(=O)(=O)Nc2nc3ccccc3nc2Nc2ccccc2)cc1` was tested, and the Potency was inconclusive: 22.4 µM [inhibitor, full curve].
With `Oc1ccccc1C(=S)N1CCN(C(=S)c2ccccc2O)CC1` the Potency was active: 3.55 µM.
`c1ccc(-c2[nH]ncc2CN2CCc3ccccc3C2)cc1` was tested, and the Potency was inconclusive: 50.1 µM [inhibitor, partial curve].
With `COc1cc2nc(N3CCNCC3)nc(N)c2cc1OC` the Potency was inconclusive: 5.62 µM [inhibitor, single point].
In the case of `CCOC(=O)CSc1c(-c2ccccc2)c2cc(Cl)ccc2[nH]c1=O`, the “activity, negative = inhibition” value is reported as inactive: 23.4%.
With `COc1ccc2c(C(=O)CCl)c[nH]c2c1` the activity, negative = inhibition was inconclusive: -62.3% [inhibitor].
`O=C(O)c1ccnc(SCC(=O)c2ccccc2)c1` was tested, and the Potency was active: 22.4 µM.
For `N#Cc1nc(COc2ccc(F)cc2)oc1NCCCn1ccnc1`, the activity, negative = inhibition was inactive: -8.42% [at 12.7 µM].
`CC(C)Cc1nnc(NC(=O)C2CC(=O)N(Cc3ccccc3)C2)s1` (centres undefined) was tested, and the Potency was inconclusive: 20 µM [inhibitor, partial curve, poor fit].
For `CCN(CC)S(=O)(=O)c1cccc(C(=O)N/N=C/c2cc(OC)c(O)c(OC)c2)c1`, the Potency was active: 10 µM.
`CC1(C)C(C(=O)O)N2C(=O)C(NC(=O)Cc3ccccc3)C2S1=O` (centres undefined) was tested, and the Potency was inconclusive: 31.6 µM [inhibitor, single point].
With `CCC(C(=O)NCc1ccccc1)n1ncn2c(cc3occc32)c1=O` (centres undefined) the Potency was inconclusive: 28.2 µM [inhibitor, single point].
For `O=C(CCl)N(Cc1cc(=O)[nH]c2ccccc12)c1ccccc1`, the Potency was active: 39.8 µM.
In the case of `O=C(CN1C(=O)NC2(CCCCCC2)C1=O)N1CCN(c2ccccc2)CC1`, the activity, negative = inhibition is reported as inactive: 6.91% [at 12.7 µM].
`O=c1c2oc3ccccc3c2n(Cc2cccc(C(F)(F)F)c2)c(=O)n1Cc1ccc2c(c1)OCO2` was tested, and the Potency was inconclusive: 6.31 µM [inhibitor, single point].
In the case of `O=C(COc1ccccc1)Nc1nc(-c2ccc(S(=O)(=O)N3CCOCC3)cc2)cs1`, the Potency is reported as inconclusive: 28.2 µM [inhibitor, single point].
`CCN1CCN(c2cc(C)c3cc(NC(=S)N4CCC5(CC4)OCCO5)ccc3n2)CC1` was tested, and the Potency was inconclusive: 89.1 µM [inhibitor, single point].
With `NS(=O)(=O)c1ccc(NC(=O)c2ccc(S(=O)(=O)N3CCc4ccccc43)cc2)cc1` the Potency was active: 31.6 µM.
For `Cc1ccc(C(=O)N/C(=C\c2ccc(-c3cccc([N+](=O)[O-])c3)o2)C(=O)NCCCN(C)C)cc1`, the Potency was active: 50.1 µM.
In the case of `O=C(O)c1ccc(N2C(=O)CC(N3C(=O)/C(=C/c4ccc(Cl)cc4)SC3=S)C2=O)cc1` (centres undefined), the Potency is reported as inconclusive: 35.5 µM [inhibitor, partial curve].
For `O=C(N/N=C1/C(=O)c2cccc3cccc1c23)c1ccc(Cl)cc1`, the Potency was inconclusive: 7.94 µM [inhibitor, full curve, poor fit].
In the case of `COc1ccc(N2CC(C(=O)NC3=NCCS3)CC2=O)cc1` (centres undefined), the Potency is reported as inconclusive: 89.1 µM [inhibitor, partial curve, poor fit].
With `CCOCCCNC(=O)/C(C#N)=C/c1ccc(C(=O)OC)cc1` the “activity, negative = inhibition” value was inactive: -44.2% [at 102 µM].
With `O=C(Nc1ccc(F)cc1)c1cccc(N2C(=O)C3C4CCC(C4)C3C2=O)c1` (centres undefined) the Potency was active: 3.16 µM.
For `COC(=O)c1ccc2c(=O)n(CCCCCC(=O)NCc3ccc4c(c3)OCO4)c(=O)[nH]c2c1`, the Potency was inconclusive: 89.1 µM [inhibitor, single point].
For `Cc1ccc(-n2nc(C)c3nc(CCC(=O)Nc4ccc(F)cc4)c(=O)n(C)c32)cc1`, the “activity, negative = inhibition” value was inactive: 26.7%.
In the case of `Clc1cccc(N=C2NN=C(c3ccc4c(c3)OCCO4)CS2)c1`, the Potency is reported as active: 14.1 µM.
For `O=C(Nc1ccccc1C(F)(F)F)N1CCN(c2ccc3nncn3n2)CC1`, the Potency was inconclusive: 5.62 µM [inhibitor, partial curve, poor fit].
`CC(=O)C1=NOC2C(=O)N(c3ccccc3)C(=O)C12` (centres undefined) was tested, and the Potency was inconclusive: 89.1 µM [inhibitor, single point].
`CN(CC[C@@H](Oc1ccc(C(F)(F)F)cc1)c1ccccc1)CC(=O)O` was tested, and the Potency was inconclusive: 23.8 µM [inhibitor, single point].
With `CCn1cc(C(=O)NC(C)c2ccccc2)c(=O)c2cc(S(=O)(=O)N3CCc4ccccc4C3)ccc21` (centres undefined) the “activity, negative = inhibition” value was inactive: -0.613%.
With `N=c1n(CC(=O)c2ccc([N+](=O)[O-])cc2)c2ccccc2n1Cc1ccc(Cl)cc1` the Potency was inconclusive: 79.4 µM [inhibitor, single point].
For `CCN(CC(=O)Nc1cc(Cl)ccc1C)C(=O)CCS(=O)(=O)c1ccc(Cl)cc1`, the Potency was inconclusive: 25.1 µM [inhibitor, partial curve].
With `COC(=O)C1CCN(C(=O)COC(=O)C2CCN(S(=O)(=O)c3c(Cl)cccc3Cl)CC2)CC1` the Potency was inconclusive: 79.4 µM [inhibitor, partial curve, poor fit].
For `COc1ccc(OCCOCCN2CCN(C)CC2)cc1`, the Potency was active: 22.4 µM.
In the case of `CC(C)(C)N/N=C1\CC(c2ccccc2)Oc2ccccc21` (centres undefined), the Potency is reported as inconclusive: 79.4 µM [inhibitor, single point].
With `C=CC[n+]1c(-c2ccc(OC)c(OC)c2)csc1NNC(=O)Nc1ccccc1` the activity, negative = inhibition was inconclusive: -94.2% [inhibitor].
`CCOc1ccccc1N(C)C(=O)NCc1noc2ccccc12` was tested, and the “activity, negative = inhibition” value was inactive: 8.32%.
`CCC(C)(C)n1nnnc1C(c1ccccc1F)N1CCN(C(=O)c2ccco2)CC1` (centres undefined) was tested, and the Potency was inconclusive: 89.1 µM [inhibitor, single point].
In the case of `Cc1cc(C)c2sc(N(CCN(C)C)C(=O)CCS(=O)(=O)c3ccccc3)nc2c1`, the Potency is reported as active: 39.8 µM.
`COC(=O)[C@@]1(Cc2ccc(OC)cc2)[C@H]2c3cc(C(=O)N4CCCC4)n(CCO)c3C[C@H]2CN1C(=O)c1ccccc1` was tested, and the Potency was active: 50.1 µM.
In the case of `COc1ccc(C(=O)c2cn(CC(=O)Nc3ccc4c(c3)OCO4)c3ccc(OC)cc3c2=O)cc1`, the Potency is reported as inconclusive: 11.2 µM [inhibitor, partial curve].
For `O=C(NCCc1ccc(Cl)cc1)c1cccn1-c1nnc(N2CCCC2)s1`, the “activity, negative = inhibition” value was inactive: -4.34%.
`CC1(C)CC(NC(=S)NCc2ccc3c(c2)OCO3)CC(C)(C)N1` was tested, and the Potency was active: 39.8 µM.
In the case of `CCC(=O)NNc1nc2c(C)c(C)ccc2s1`, the Potency is reported as inconclusive: 44.7 µM [inhibitor, partial curve, poor fit].
In the case of `O=C(CN(C(=O)CNC(=O)c1ccco1)c1ccc(Cl)c(Cl)c1)NC1CCCCC1`, the Potency is reported as inconclusive: 70.8 µM [inhibitor, partial curve].
For `COc1nc(/C(N)=N/O)nc(N2CCCCC2)n1`, the Potency was inconclusive: 5.62 µM [inhibitor, single point].
For `COCCNc1oc(COc2cccc(C)c2)nc1C#N`, the Potency was inconclusive: 39.8 µM [inhibitor, full curve].
`CCN(CC)c1ccc(NC(=O)c2ccc(=O)[nH]c2)cc1S(=O)(=O)Nc1ccccc1OC` was tested, and the Potency was active: 2.51 µM.
In the case of `CCCCNC(=O)Cn1nc(C)c(S(=O)(=O)N2CCOCC2)c1C`, the activity, negative = inhibition is reported as inactive: 8.75% [at 12.7 µM].
In the case of `Cc1ccccc1C1c2[nH]c3ccccc3c2CCN1Cc1cccn1-c1ncccn1` (centres undefined), the Potency is reported as active: 50.1 µM.
For `O=C(NCc1ccco1)c1cccn2c(=O)c3cc4ccccc4cc3nc12`, the Potency was inconclusive: 79.4 µM [inhibitor, single point].
With `C/C(=N\NC(=O)Cc1cccn1C)c1cccc2ccccc12` the Potency was inconclusive: 79.4 µM [inhibitor, single point].
For `O=C1CC(c2ccc3c(c2)OCO3)c2cc(O)ccc2O1` (centres undefined), the Potency was active: 10 µM.
With `CCOC(=O)c1cc(C)sc1NC(=O)CN1CCN(C(=O)c2ccco2)CC1` the “activity, negative = inhibition” value was inactive: 57.5% [at 102 µM].
In the case of `CCn1c(O)c(C=C2N=c3ccccc3=N2)sc1=S`, the Potency is reported as inconclusive: 50.1 µM [inhibitor, partial curve].
`C[C@H](N)c1nnc(SCC(N)=O)o1` was tested, and the Potency was active: 12.6 µM.
Further: nearly all actives have a fitted effect of over 75% in size.
On the % scale 0 is the no-effect control and ±100 the full control effect; potency means the concentration at half of the fitted maximal effect; tags describe the fitted curve by direction and shape.
